Data taken from patent US20190330310A1 (VIB VZW, published 2019).

Tests used:
HA-Tyk2(C)-RTp66 = biological target: T1, HA-Tyk2(C)-RTp66 (HIV-1); assay: luciferase reporter interaction assay in HEK293-T cells
T1 construct: also called pSVSport-HA-Tyk2(C)-RTp66; RTp66 kinase fusion construct

HA-Tyk2(C)-SERT = biological target: T2, HA-Tyk2(C)-SERT (human); assay: as above
T2 construct: Fusion protein expressed in transfected HEK293-T cells; also called pSVSport-HA-Tyk2(C)-SERT; SERT kinase fusion construct

B1: flag tag-gp130-VAMP2 (other)
chain: MDYKDDDDKISTVVHSGYRHQVPSVQVFSRSESTQPLLDSEERPEDLQLVDHVDGGDGILPRQQYFKQNCSQHESSPDISHFERSKQVSSVNEEDFVRLKQQISDHISQSCGSGQMKMFQEVSAADAFGPGTEGQVERFETVGMEAATDEGMPKSYLPQTVRQGGYMPQGGSELSTSLYKKVG[letters of about 120 residues not shown]YPTFLYKVV
notes: also called pMG1-VAMP2; pMG2-VAMP2
B1: no binding (HA-Tyk2(C)-RTp66); binds (HA-Tyk2(C)-SERT).
